Some of the results follow.

In this test the test system is PfSIP2 AP2 domain 1 (GST-tagged). The test is described as follows: gcPBM binding intensity (ln(normalized median fluorescence intensity)); higher = stronger DNA binding. An outline of the steps: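 Binding of GST-tagged P. falciparum DNA-binding domains, expressed in E. coli and used at about 25 μg on average, was carried out for 1 h in 1× PBS containing 1% milk, 0.2 mg/ml BSA, 0.5% salmon testes DNA and 0.03% Triton X-100. The target was an Agilent 4 × 180k array of primer-extended double-stranded 36-bp intergenic genomic probes plus negative controls, read with Alexa488 anti-GST antibody at 488 nm. Binding intensity is the highest Masliner-normalised natural-log median intensity across replicate spots of either probe orientation.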
In the case of “AATTTTCAATAGTATACACACAATTCTATAAATATA [CACACA_site6650]”, the “gcPBM binding intensity (ln)” value is 7.04.
With “AATGAGAATTTTATTACACACTTTAATATATTTTCA [CACACA_site784]” the figure was 6.75.
With “CACGTGAAAATACAAGCATGCAAGCTTTTTTTTTCT [TGCATGCA_site642]” the figure was 6.53; with “AATTTTTTTATAGCACGTACAAAAATACAAAATACA [XGTACX_site1569]”, 7.34.
With “ATCATTTATATTTTATGTACATATATAATTATATTT [XGTACX_site2129]” the figure was 7.29; with “AAAAAAATAAATAAATGTACACATATATATATATAT [XGTACX_site4350]”, 9.23.
For the sequence “TAGAGGAATATAATATGTACATAATATAATGTATAT [XGTACX_site2838]”, the “gcPBM binding intensity (ln)” value amounted to 7.07.
With “TTATGTCTAATGAAATGTACATGAATAAATTAAAGT [XGTACX_site8138]” the figure was 7.59.
In the case of “AGTGAAATTTTAGTCACACAGTTTTATCTTTAAGAA [CACACA_site5202]” it was 6.54.
In the case of “AATTATATAAGCCACGCATGTGTGCATAAAAATACA [TGCATGCA_site114]” it was 7.79; in that of “AGCCCAAAAAAGTAGACATGCAAAAACTTTACAACT [TGCATGCA_site550]”, 7.09; in that of “AAAAAAAAAAAGAAGGGTACATATTATATATAATAT [XGTACX_site6204]”, 7.09.
Take “TATATATAAACATAATGTACATATAATAAGTAATAT [XGTACX_site497]”: the “gcPBM binding intensity (ln)” value was 7.22.
In the case of “TCTTGATCTTATATATATCTACAATATTTTATACAT [TGCATGCA_negctrl_site569]” it was 7.12; in that of “ATTACAAATATAATATGTACTTAAATATAATTAAAA [XGTACX_site7038]”, 6.89.
With “ATTACTAAAACAAAATGTACATATGATTTAAGAAAA [XGTACX_site5992]” the figure was 6.83.
With “TTTTTTTTTTAGAGTACACACTTTTTTACATTTATG [CACACA_site5990]” the figure was 7.08; with “ATATATATATATATTGCACACATATAAATATATATA [CACACA_site8167]”, 9.22; with “GAAAAATTTAATTATTGTACGTTTCATCTATATTTA [XGTACX_site414]”, 6.91.
Consider “TTTTTGTTTTTTTTGTGTACTTATCAAATATATATA [XGTACX_site7273]”, for which the “gcPBM binding intensity (ln)” value was determined as 7.49.
For the sequence “CAAAAAAAATTATACACACACACACCCATATATATA [CACACA_site1044]”, the “gcPBM binding intensity (ln)” value turned out to be 7.54.
With “AAGAAAATTAACCCATGTACTTATGTAGATAGCAAG [XGTACX_site1049]” the figure was 7.25.
With “TACTATATATTATATAGTACATAAGATATACAACAT [XGTACX_site2929]” the figure was 7.17; with “TAAAACTTAATATAAACACACAAAAATTAATAAATA [CACACA_site4370]”, 6.81.
Turning to “CAATATTATAGATATACACACATAATGTGTAAAAAC [CACACA_site6631]”, the “gcPBM binding intensity (ln)” value was determined as 6.8.
With “ATAAATAGTATTATATGTACACATAATATTTATAAA [XGTACX_site4751]” the figure was 7.28; with “AAAAATGGTGTTAACACACACATATATATATATATA [CACACA_site571]”, 9.76.
“TTTCTCTCTTATAAAATACACACGAACAATCATATT [CACACA_site509]”: the “gcPBM binding intensity (ln)” value was determined as 7.11.
In the case of “TATAATTATGATGATAGTACGTATGAGTTCAAAACA [XGTACX_site4211]” it was 6.97; in that of “CACATTTTTTAAATATTTTTCTACTCCATAATGTTT [CACACA_negctrl_site557]”, 7.1.
“TTAATATAGGGAAAAAAAAGAAAATCGAAAATGTGT [CACACA_negctrl_site834]”: the “gcPBM binding intensity (ln)” value is 6.96.
In the case of “ATAGTTACACGCCAAAAAAAAAAAAAAAAAAAAAAA [CACACA_negctrl_site1133]”, the “gcPBM binding intensity (ln)” value turned out to be 7.09.
With “TTAAAATGATTGTTACTTTTTTTTCCGTTTTCTTAA [CACACA_negctrl_site1195]” the figure was 6.54; with “TAACTTCAAAAATCTTGTACATAAATATATAAAACA [XGTACX_site8574]”, 7.02; with “AATTTTGTCCTATGTTGTACTATTTTGCTCTATTTT [XGTACX_site7139]”, 7.07.
Consider “GTTTATATATTATAAAGTACATATGAATTTAATAAT [XGTACX_site3601]”, for which the “gcPBM binding intensity (ln)” value is 7.14.
For “AAAAAATAAATAAACATAAATAAATAAATAAATATA [XGTACX_negctrl_site340]”, the “gcPBM binding intensity (ln)” value was determined as 6.71.
Turning to “ATTTCAAAATATAGCTGTACAAAAAATGTAGATATA [XGTACX_site5843]”, the “gcPBM binding intensity (ln)” value amounted to 7.13.
With “GATCATTCTAAATATAAACACACATAAATATATACA [CACACA_site9108]”, the “gcPBM binding intensity (ln)” value turned out to be 7.02.
Take “ATAATATAATAATATTGTACATGGTCAAATATGAAA [XGTACX_site8390]”: the “gcPBM binding intensity (ln)” value was 7.
In the case of “CTTAAAAAAATATATTGTACATATATATATACAACT [XGTACX_site1281]” it was 7.25; in that of “TATATTCCCATATAACGTACATATGAGACACCAACT [XGTACX_site8099]”, 7.09; in that of “ATATAAGTACCTATAACACACATATATTATAAGTAT [CACACA_site7281]”, 7.04.
With “TAGAATAAATTAATTACACACGGAATTATATATATA [CACACA_site1616]” the figure was 7.83; with “TATCATATATTATAGCGTACTTATTTATTTATTTAT [XGTACX_site1676]”, 6.97.
In the case of “TATAATAGTTCATAGGTGCAATATAATAAATTTATA [GTGCAC_site9573]” it was 9.98.
On to “AAAAAAAAAAAAAAAAGTACATGAAAAAAAGAAGAA [XGTACX_site8384]”, for which the “gcPBM binding intensity (ln)” value was determined as 7.8.
In the case of “TTTTTTTTTTAGTATGAACACACATATATATTATAA [CACACA_site8957]” it was 6.88; in that of “ATAAAACTTATTTAACGTACATATTTTATATACCTT [XGTACX_site5353]”, 7.04; in that of “TATAAAATAAATAACAAAAAAAATAAAATAAAAATA [TGCATGCA_negctrl_site297]”, 6.63.
In the case of “AAAAAATACATCAAAAGAAACATATATATATATATA [GTGCAC_negctrl_site719]” it was 9.67; in that of “AATGGTTATAATATATGTACATATAAATATACTGAA [XGTACX_site8533]”, 7.08; in that of “TATAGCAAAATATTCACACAAACTATTAATAAAAGT [CACACA_site5795]”, 7.05.
In the case of “TATATTTATAAATGAACACACACGCAATTTGAATCG [CACACA_site3370]” it was 7.24; in that of “CTGTATTTATTTTTCTGTACCAAATCACCCCTTGTA [XGTACX_site395]”, 7.1; in that of “TACGTTTTATGACACACACACAAAAAAAAAAAAAAA [CACACA_site7764]”, 7.07.
For the sequence “GATGTATAAAATAATACATGCATGTCCTACATATAT [TGCATGCA_site155]”, the “gcPBM binding intensity (ln)” value is 6.89.
In the case of “TTTCTTTTTCGATATACACACTGTATGTGTCTAAAA [CACACA_site6054]” it was 6.85.
In the case of “TTTCCGGTAATATGGAAATATATGTGGGTTTTTTTT [CACACA_negctrl_site1536]”, the “gcPBM binding intensity (ln)” value is 6.71.
In the case of “ACTATTTTAAAAATATGTACATACGTTGTAATTTAA [XGTACX_site7999]” it was 7.23; in that of “CGAAGGATAAACATACGTACATATATGTGTATAATA [XGTACX_site779]”, 6.92; in that of “TTGTATTAAAATCAAGTGCATATAATTTAAGTTCAT [GTGCAC_site9495]”, 8.13.
Consider “CTTTGGTTATAACACACATGCACACGTAAATAAATA [TGCATGCA_site976]”, for which the “gcPBM binding intensity (ln)” value was 7.63.
With “CATCACCTTTTTAAATGTACGCATAATACCAAAAAA [XGTACX_site1587]” the figure was 7.28; with “GTAGGTTACAAAATGTGAGAGAAGCAAATATAGAAA [CACACA_negctrl_site1819]”, 6.99.
With “TTTTGTTTTTAGTTTATACACACCATATTAATATAA [CACACA_site3102]” the figure was 7.27; with ATATTTTTATATGAGGTGCATATAATGACAATTAAG, 10.6.
In the case of ATACTATTTAAATGGGTGCTAAAAATAACAAAAATT it was 8.88.
Regarding “TCTTTTTATGTTCTAGAGCATTTTATTATTTAACAT [CACACA_negctrl_site1699]”, the “gcPBM binding intensity (ln)” value was determined as 6.93.
With “AATCGAAATCGTGCACGGACACATGCAGTAGCCGAG [XGTACX_site6001]” the figure was 7.99; with “TTCCCCCCCAGACACACACACACATACATACCACAT [CACACA_site2305]”, 8.83.
Take “ATATATATACACAATAGTACGTGTAATATTATTATT [XGTACX_site2151]”: the “gcPBM binding intensity (ln)” value was 7.56.
With “TATACCTATAAATACACACACATATATAAATAAATA [CACACA_site6730]” the figure was 7.22.
Turning to “GAAGTTAGTGTTGACTGTACATATATATGTATATAT [XGTACX_site7243]”, the “gcPBM binding intensity (ln)” value was 7.21.
With “TTTTCTTTTTGTTCGTGTACACACATGAAATTTATA [XGTACX_site3301]”, the “gcPBM binding intensity (ln)” value was found to be 7.18.
In the case of “AAACGTACATAATACACACACATGTATACATATAAA [CACACA_site2048]” it was 7.12; in that of “ATTTCTTTTTTTTTTTTTTTTAATGTAAAACATTTT [CACACA_negctrl_site1462]”, 6.89; in that of “GGTGGTAAAAAACCTGCATGTCGAAATATTAAATAC [TGCATGCA_site33]”, 7.23.
With “AAAAAAAAAAAAAAGAGTACTCATATAAAAATATAA [XGTACX_site6551]” the figure was 7.3; with “AAGAAGAAACAAAACACACACAGTCTTCTTTTCTAT [CACACA_site3088]”, 6.8; with “TACAGAATTGTATATAGTACATAAAACAATATATAT [XGTACX_site7275]”, 7.16.
With “GTATATGAATAATATTTTATGGTAATTTTTTTTTTT [XGTACX_negctrl_site512]” the figure was 6.91; with “AATGAAAAGTAAAATACACACACATAATATAATTTA [CACACA_site8608]”, 6.89.
On to “TGTGTAAAAATCATGGGTACACATTTTGATACCAAT [XGTACX_site1779]”, for which the “gcPBM binding intensity (ln)” value is 7.01.
With “AAACTTGACGAACACACACACACATATATAAAAAAA [CACACA_site6494]” the figure was 7.38; with “ATAAATTAAAAACACACACACATCTGGATACCCCTA [CACACA_site5780]”, 6.93.
With “TTTTTATAAAAAATTTACACTATATGACAGAAGTAA [XGTACX_negctrl_site481]” the figure was 7.07.
With “GAATCCTTAATATGAACACACAAATATATTACCCAT [CACACA_site186]” the figure was 7.08.

The record behind these values is the supplement of paper PMC11417369.
